At least one peptide structure holds a part that was inferred or is arguable (an end, a ring closure or a residue). Some compounds share one wording; it may come from a single statement.
Columns and labels:
normal ICR mice [1] = assay: In vivo hypoglycemic activity of GLP-1 analogues, duodenal administration, oral glucose loading; design: species or system mouse; settings: for AUC (blood glucose-time curve) / Blood glucose 0 min / Blood glucose 15 min / Blood glucose 30 min / Blood glucose 60 min: duodenal injection 10 μmol/kg, mean; for AUC (blood glucose-time curve): 0-60 min; for Blood glucose 15 min: 15 min after oral glucose loading
Protocol: FIG. 22. In vivo hypoglycemic activities of GLP-1 analogues by duodenal administration. Normal ICR mice were anesthetized with inhalation of ether, and the duodenum was surgically removed and injected with GLP-1 and its analogues or a corresponding volume of saline ([…], n=9-11), and finally the incision was sewed. After 15 min, glucose solution (2 g/kg) was administered by gavage, and blood was collected from the tail tips at 15, 30, and 60 min after glucose administration. Blood glucose was measured using glucose oxidase method, and blood glucose values and area under the blood glucose curve (AUC) were calculated at each timepoint.
Drug delivery technology can use enteric coating technology to achieve oral administration targeting the small intestine. In order to test the feasibility of direct small intestinal administration of GLP-1, the present invention designs duodenal administration. The experimental process is as follows: The day before the experiment, all of the animals were fasted for 15-16 hours with water ad libitum. On the day of the experiment, the animals were randomly divided according to body weight (n=9-11 or 14-15 for combined administration). Firstly, the blood was collected from the tail tip at 0 hours, and then the animals were anesthetized by inhaling ether. A small incision was made near the underside of the stomach using surgical scissors, and the duodenum was carefully removed and administered with GLP-1 analogs (SEQ ID NOs: 194-209, 10 μmol/kg) or saline. Finally, the wound was sutured. After 15 minutes, the glucose solution (2 g/kg) was administered by gavage, and the blood were collected from the tail tips at 15, 30, and 60 minutes after glucose administration. Blood glucose was measured using the glucose oxidase method. The blood glucose at each moment and area under the blood glucose-time curve (AUC) were calculated.
AUC mg×h/dL)=(BG0+BG15)×15/60+(BG15+BG30)×15/60+(BG30+BG60)×30/60. BG0, BG15, BG30, and BG60 represent blood glucose levels at 0, 15, 30, and 60 minutes after glucose loading, respectively.

normal ICR mice [2] = assay: In vivo hypoglycemic activity of GLP-1 analogues, subcutaneous administration, oral glucose loading; design: species or system mouse; settings: for hypoglycemic activity, subcutaneous injection (in words): normal ICR mice, 1 μmol/kg s.c., glucose 2 g/kg by gavage; for AUC (blood glucose-time curve) / Blood glucose 0 min / Blood glucose 30 min / Blood glucose 60 min / Blood glucose 120 min: subcutaneous 1 μmol/kg, mean; for AUC (blood glucose-time curve): 0-120 min; for Blood glucose 0 min: oral glucose loading 2 g/kg; for Blood glucose 30 min: 30 min after oral glucose loading; for Blood glucose 60 min: 60 min after oral glucose loading; for Blood glucose 120 min: 120 min after oral glucose loading
Protocol: FIG. 21. In vivo hypoglycemic activities of GLP-1 analogues by subcutaneous administration. Normal ICR mice were subcutaneously injected with GLP-1 and its analogues or corresponding volumes of saline (1.0 μmol/kg, n=10). After 30 min, glucose solution (2 g/kg) was administered by gavage, and blood was collected from the tail tip at 30, 60, and 120 min after glucose administration. Blood glucose was measured using glucose oxidase method, and blood glucose values and area under the blood glucose curve (AUC) were calculated at each timepoint.
The day before the experiment, all of the animals were fasted for 15-16 hours with water ad libitum. On the day of the experiment, the animals were randomly divided according to body weight (n=10). Firstly, the blood was collected from the tail tip at 0 hour, and then the animals were administered subcutaneously with GLP-1 analog (SEQ ID NOs: 194-201, 1 μmol/kg) or saline. After 30 minutes, the animals were administered by gavage with glucose solution (2 g/kg), and the blood was collected from the tail tip at 30, 60, and 120 minutes later. Blood glucose was measured using glucose oxidase method. The blood glucose and area under the blood glucose-time curve (AUC) were calculated.

[3] = duodenal 10 μmol/kg, normal ICR mice, after oral glucose loading

Compound: CC[C@H](C)[C@H](NC(=O)[C@H](Cc1ccccc1)NC(=O)[C@H](CCC(=O)O)NC(=O)[C@H](CCCCN)NC(=O)[C@H](C)NC(=O)[C@H](C)NC(=O)[C@H](CCC(N)=O)NC(=O)CNC(=O)[C@H](CCC(=O)O)NC(=O)[C@H](CC(C)C)NC(=O)[C@H](Cc1ccc(O)cc1)NC(=O)[C@H](CO)NC(=O)[C@H](CO)NC(=O)[C@@H](NC(=O)[C@H](CC(=O)O)NC(=O)[C@H](CO)NC(=O)[C@@H](NC(=O)[C@H](Cc1ccccc1)NC(=O)[C@@H](NC(=O)CNC(=O)[C@H](CCC(=O)O)NC(=O)[C@H](C)NC(=O)[C@H](Cc1c[nH]cn1)NC(=O)CNC(=O)CNC(=O)[C@@H](NC(=O)[C@@H]1CCCN1C(=O)[C@@H](NC(=O)CNC(=O)CNC(=O)[C@@H]1CCCN1C(=O)[C@H](Cc1ccccc1)NC(=O)[C@@H]1CSSC[C@H](NC(=O)[C@H](CCCNC(=N)N)NC(=O)CN)C(=O)N[C@@H]([C@@H](C)O)C(=O)N[C@@H](CCCCN)C(=O)N[C@@H](CO)C(=O)N[C@@H]([C@@H](C)CC)C(=O)N2CCC[C@H]2C(=O)N2CCC[C@H]2C(=O)N[C@@H]([C@@H](C)CC)C(=O)N1)[C@@H](C)CC)[C@@H](C)CC)[C@@H](C)O)[C@@H](C)O)C(C)C)C(=O)N[C@@H](C)C(=O)N[C@@H](Cc1c[nH]c2ccccc12)C(=O)N[C@@H](CC(C)C)C(=O)N[C@H](C(=O)N[C@@H](CCCCN)C(=O)NCC(=O)N[C@@H](CCCNC(=N)N)C(=O)NCC(=O)NCC(=O)N[C@@H](CCCCN)C(=O)O)C(C)C [BT1-D-GLP-1]
- reduction of blood glucose at 60 minutes compared with Nor (normal ICR mice [1]; [3]): 23.2%
- AUC (blood glucose-time curve) (normal ICR mice [1]): 119.8 mg·h/dL
- Blood glucose 0 min (normal ICR mice [1]): 60.7 mg/dL
- Blood glucose 15 min (normal ICR mice [1]): 113.5 mg/dL
- Blood glucose 30 min (normal ICR mice [1]): 128.0 mg/dL
- Blood glucose 60 min (normal ICR mice [1]): 143.2 mg/dL
- hypoglycemic activity, subcutaneous injection (in words) (normal ICR mice [2]): significantly reduced the blood glucose levels at 30, 60, and 120 minutes after oral glucose loading and the AUC
- AUC (blood glucose-time curve) (normal ICR mice [2]): 138.7 mg·h/dL
- Blood glucose 0 min (normal ICR mice [2]): 64.2 mg/dL
- Blood glucose 30 min (normal ICR mice [2]): 92.8 mg/dL
- Blood glucose 60 min (normal ICR mice [2]): 70.9 mg/dL
- Blood glucose 120 min (normal ICR mice [2]): 46.1 mg/dL

Compound: CC[C@H](C)[C@H](NC(=O)[C@H](Cc1ccccc1)NC(=O)[C@H](CCC(=O)O)NC(=O)[C@H](CCCCN)NC(=O)[C@H](C)NC(=O)[C@H](C)NC(=O)[C@H](CCC(N)=O)NC(=O)CNC(=O)[C@H](CCC(=O)O)NC(=O)[C@H](CC(C)C)NC(=O)[C@H](Cc1ccc(O)cc1)NC(=O)[C@H](CO)NC(=O)[C@H](CO)NC(=O)[C@@H](NC(=O)[C@H](CC(=O)O)NC(=O)[C@H](CO)NC(=O)[C@@H](NC(=O)[C@H](Cc1ccccc1)NC(=O)[C@@H](NC(=O)CNC(=O)[C@H](CCC(=O)O)NC(=O)[C@H](C)NC(=O)[C@H](Cc1c[nH]cn1)NC(=O)CNC(=O)CNC(=O)[C@@H](NC(=O)[C@@H]1CCCN1C(=O)[C@@H](NC(=O)CNC(=O)CNC(=O)[C@H](Cc1ccccc1)NC(=O)[C@@H]1CSSC[C@H](N)C(=O)NCC(=O)N[C@@H](CCCNC(=N)N)C(=O)N[C@@H](C)C(=O)N[C@@H]([C@@H](C)O)C(=O)N[C@@H](CCCCN)C(=O)N[C@@H](CO)C(=O)N[C@@H]([C@@H](C)CC)C(=O)N2CCC[C@H]2C(=O)N2CCC[C@H]2C(=O)N[C@@H]([C@@H](C)CC)C(=O)N1)[C@@H](C)CC)[C@@H](C)CC)[C@@H](C)O)[C@@H](C)O)C(C)C)C(=O)N[C@@H](C)C(=O)N[C@@H](Cc1c[nH]c2ccccc12)C(=O)N[C@@H](CC(C)C)C(=O)N[C@H](C(=O)N[C@@H](CCCCN)C(=O)NCC(=O)N[C@@H](CCCNC(=N)N)C(=O)NCC(=O)NCC(=O)N[C@@H](CCCCN)C(=O)O)C(C)C [BT9-D-GLP-1]
- reduction of blood glucose at 60 minutes compared with Nor (normal ICR mice [1]; [3]): 22.7%
- reduction of the AUC of blood glucose compared with Nor (normal ICR mice [1]; [3]): 20.1%
- AUC (blood glucose-time curve) (normal ICR mice [1]): 115.3 mg·h/dL
- Blood glucose 0 min (normal ICR mice [1]): 57.9 mg/dL
- Blood glucose 15 min (normal ICR mice [1]): 104.3 mg/dL
- Blood glucose 30 min (normal ICR mice [1]): 122.7 mg/dL
- Blood glucose 60 min (normal ICR mice [1]): 144.1 mg/dL
- hypoglycemic activity, subcutaneous injection (in words) (normal ICR mice [2]): significantly reduced the blood glucose levels at 30, 60, and 120 minutes after oral glucose loading and the AUC
- AUC (blood glucose-time curve) (normal ICR mice [2]): 137.3 mg·h/dL
- Blood glucose 0 min (normal ICR mice [2]): 57.1 mg/dL
- Blood glucose 30 min (normal ICR mice [2]): 100.6 mg/dL
- Blood glucose 60 min (normal ICR mice [2]): 68.8 mg/dL
- Blood glucose 120 min (normal ICR mice [2]): 42.2 + mg/dL

Compound: CC[C@H](C)[C@H](NC(=O)[C@H](Cc1ccccc1)NC(=O)[C@H](CCC(=O)O)NC(=O)[C@H](CCCCN)NC(=O)[C@H](C)NC(=O)[C@H](C)NC(=O)[C@H](CCC(N)=O)NC(=O)CNC(=O)[C@H](CCC(=O)O)NC(=O)[C@H](CC(C)C)NC(=O)[C@H](Cc1ccc(O)cc1)NC(=O)[C@H](CO)NC(=O)[C@H](CO)NC(=O)[C@@H](NC(=O)[C@H](CC(=O)O)NC(=O)[C@H](CO)NC(=O)[C@@H](NC(=O)[C@H](Cc1ccccc1)NC(=O)[C@@H](NC(=O)CNC(=O)[C@H](CCC(=O)O)NC(=O)[C@H](C)NC(=O)[C@H](Cc1c[nH]cn1)NC(=O)CNC(=O)CNC(=O)[C@@H](NC(=O)[C@@H]1CCCN1C(=O)[C@@H](NC(=O)CNC(=O)CNC(=O)[C@H](Cc1ccc(O)cc1)NC(=O)[C@@H]1CSSC[C@H](NC(=O)[C@@H](N)CO)C(=O)N[C@@H]([C@@H](C)O)C(=O)N[C@@H](Cc2ccc(O)cc2)C(=O)N[C@@H](CO)C(=O)N[C@@H]([C@@H](C)CC)C(=O)N2CCC[C@H]2C(=O)N2CCC[C@H]2C(=O)N[C@@H](CCC(N)=O)C(=O)N1)[C@@H](C)CC)[C@@H](C)CC)[C@@H](C)O)[C@@H](C)O)C(C)C)C(=O)N[C@@H](C)C(=O)N[C@@H](Cc1c[nH]c2ccccc12)C(=O)N[C@@H](CC(C)C)C(=O)N[C@H](C(=O)N[C@@H](CCCCN)C(=O)NCC(=O)N[C@@H](CCCNC(=N)N)C(=O)NCC(=O)NCC(=O)N[C@@H](CCCCN)C(=O)O)C(C)C [CH4-D-GLP-1]
- reduction of blood glucose at 30 minutes compared with Nor (normal ICR mice [1]; [3]): 32.3%
- reduction of the AUC of blood glucose compared with Nor (normal ICR mice [1]; [3]): 23.6%
- AUC (blood glucose-time curve) (normal ICR mice [1]): 106.8 mg·h/dL
- Blood glucose 0 min (normal ICR mice [1]): 73.8 mg/dL
- Blood glucose 15 min (normal ICR mice [1]): 101.9 mg/dL
- Blood glucose 30 min (normal ICR mice [1]): 102.0 mg/dL
- Blood glucose 60 min (normal ICR mice [1]): 135.2 mg/dL
- hypoglycemic activity, duodenal administration (in words) (normal ICR mice [1]; normal ICR mice, 10 μmol/kg duodenal, glucose 2 g/kg by gavage): absorbed into the blood circulation and have hypoglycemic activity
- AUC (blood glucose-time curve) (normal ICR mice [2]): 177.0 mg·h/dL
- Blood glucose 0 min (normal ICR mice [2]): 77.7 mg/dL
- Blood glucose 30 min (normal ICR mice [2]): 113.2 mg/dL
- Blood glucose 60 min (normal ICR mice [2]): 95.0 mg/dL
- Blood glucose 120 min (normal ICR mice [2]): 59.6 mg/dL

From patent publication US20230416329A1, “A PEPTIDE WITH DISULFIDE BONDS AND INHIBITORY ACTIVITY AGAINST SERINE PROTEASES, DERIVED HYBRID PEPTIDES THEREOF, AND USES THEREOF” (INSTITUTE OF MATERIA MEDICA , CHINESE ACADEMY OF MEDICAL …, priority 2020, published 2023)
